Hit rate of the full screen: of about 310,000 compounds, about 14,000 (4.5%) showed an effect of 50% or more. Effects have a minus sign here. This is one part of the list.
target: human ether-à-go-go-related gene (hERG) potassium channel (human, UniProt Q12809); experiment: primary screen, population patch clamp on CHO cells stably expressing hERG
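Further: peak tail current of the secondary pulse compared with the same well before compound.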

Sequence of human ether-à-go-go-related gene (hERG) potassium channel (Q12809 whole entry, looked up): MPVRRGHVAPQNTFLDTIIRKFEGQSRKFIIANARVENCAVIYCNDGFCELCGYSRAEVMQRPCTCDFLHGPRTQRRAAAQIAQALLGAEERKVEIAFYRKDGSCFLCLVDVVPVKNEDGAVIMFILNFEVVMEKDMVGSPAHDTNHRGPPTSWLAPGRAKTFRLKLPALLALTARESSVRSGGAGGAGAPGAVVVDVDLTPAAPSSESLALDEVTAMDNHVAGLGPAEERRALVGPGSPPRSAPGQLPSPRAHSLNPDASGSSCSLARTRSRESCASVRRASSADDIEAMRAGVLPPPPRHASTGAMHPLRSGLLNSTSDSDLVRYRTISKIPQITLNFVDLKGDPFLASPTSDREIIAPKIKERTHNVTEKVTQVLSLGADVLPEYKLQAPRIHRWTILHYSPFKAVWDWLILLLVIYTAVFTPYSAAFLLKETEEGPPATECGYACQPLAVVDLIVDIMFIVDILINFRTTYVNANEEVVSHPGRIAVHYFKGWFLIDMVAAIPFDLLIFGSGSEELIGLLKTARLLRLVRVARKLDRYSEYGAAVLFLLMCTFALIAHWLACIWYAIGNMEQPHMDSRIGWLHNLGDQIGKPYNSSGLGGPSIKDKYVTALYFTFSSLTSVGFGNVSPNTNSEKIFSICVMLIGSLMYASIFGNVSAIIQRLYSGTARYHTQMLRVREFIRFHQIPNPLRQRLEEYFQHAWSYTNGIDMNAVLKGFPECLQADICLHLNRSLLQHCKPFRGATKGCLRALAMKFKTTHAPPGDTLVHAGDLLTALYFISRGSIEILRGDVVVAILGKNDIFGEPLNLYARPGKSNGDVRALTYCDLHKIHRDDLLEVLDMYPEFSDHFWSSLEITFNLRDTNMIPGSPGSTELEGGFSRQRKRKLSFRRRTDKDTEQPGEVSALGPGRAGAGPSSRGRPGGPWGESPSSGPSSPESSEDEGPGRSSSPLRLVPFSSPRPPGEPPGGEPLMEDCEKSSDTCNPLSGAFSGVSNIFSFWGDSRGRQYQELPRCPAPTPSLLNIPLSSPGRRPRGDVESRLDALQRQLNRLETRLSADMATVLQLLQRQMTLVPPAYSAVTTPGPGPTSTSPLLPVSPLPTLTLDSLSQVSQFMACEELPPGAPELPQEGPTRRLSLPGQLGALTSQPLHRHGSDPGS

First: CC(=O)CSc1nnc2cc(C)c3ccccc3n12
Second: CCn1c(SCC(=O)N2CCN(c3ccccc3)CC2)nnc1-c1c[nH]c2ccccc12
The “hERG current change (%, negative = inhibition) at 10uM” value of the first is higher: 23% for the first, -53.6% for the second.

First: CC1CC(C)CN(C(=S)Nc2ccc(SC(F)F)cc2)C1 (stereo not drawn)
Second: Cc1ccc(NC(=O)C23CCC(C)(C(=O)[C@H]2Br)C3(C)C)cc1 (stereo partly drawn)
The “hERG current change (%, negative = inhibition) at 10uM” value of the first is lower: -51.8% for the first, 8.95% for the second.

First: CC(NS(=O)(=O)c1ccc2c(c1)OCCO2)c1ccccc1 (stereo not drawn)
Second: CN(CC(=O)NCc1ccco1)C(=O)C1CC(=O)N(c2ccc3c(c2)OCCO3)C1 (stereo not drawn)
The “hERG current change (%, negative = inhibition) at 10uM” value of the first is higher: 8.19% for the first, -0.304% for the second.

Going from CNC(=O)n1cc(C)c(-c2cccs2)n1 to O=C(Nc1nccs1)c1cccc(S(=O)(=O)N2CCCC2)c1, the “hERG current change (%, negative = inhibition) at 10uM” value falls from 5.15% to -6.01%.

First: O=C(c1ccc(Cn2c(=O)[nH]c3ccccc3c2=O)cc1)N1CCN(c2ccccc2)CC1
Second: O=C(COc1ccc2ccccc2c1)N1CCN(c2ccccc2)CC1
The “hERG current change (%, negative = inhibition) at 10uM” value of the first is lower: 10.8% for the first, 11.7% for the second.

Going from C=CCN(Cc1nc(-c2ccc(OC)cc2)no1)C(=O)c1ccc2c(c1)OCO2 to CCOc1ccc(C(=O)NCC(=O)OCc2cc(C(C)=O)ccc2OC)cc1, the “hERG current change (%, negative = inhibition) at 10uM” value rises from -14.7% to -14.5%.

Compared with CCOc1ccccc1N1CCN(C2=C(NS(=O)(=O)c3cccs3)C(=O)c3ccccc3C2=O)CC1, CC(=C1C(=O)c2ccccc2C1=O)N1CCc2ccccc2C1 is lower in “hERG current change (%, negative = inhibition) at 10uM” value: -14.1% for the first, -25.6% for the second.

Compared with N/C(=N\S(=O)(=O)c1cccs1)c1ccccc1Cl, O=S(=O)(Nc1nc2ccccc2s1)c1cc(F)ccc1F is lower in “hERG current change (%, negative = inhibition) at 10uM” value: 14.4% for the first, 7.28% for the second.

Going from O=C(O)C(=O)O.O=[N+]([O-])c1ccc(S(=O)(=O)N2CCN(C3CCN(Cc4ccccc4)CC3)CC2)cc1 to O=C(CN1CCN(S(=O)(=O)c2ccc(Cl)cc2)CC1)NCC1(N2CCOCC2)CCCCC1, the “hERG current change (%, negative = inhibition) at 10uM” value rises from -78.2% to -39.3%.

Compared with CCOc1cc(CN2CCN(CCc3ccccc3)C(CCO)C2)ccc1OC (stereo not drawn), Cc1ccc(CN2CCNC(=O)C2CC(=O)N(C)CCc2ccccc2)cc1 (stereo not drawn) is higher in “hERG current change (%, negative = inhibition) at 10uM” value: -66.5% for the first, -18% for the second.

Going from COc1cccc2sc(N(CCCN(C)C)C(=O)C(c3ccccc3)c3ccccc3)nc12.Cl to COc1ccccc1CN(C)C(=O)c1cccc(S(=O)(=O)N2CCCc3ccccc32)c1, the “hERG current change (%, negative = inhibition) at 10uM” value rises from -72.7% to -18.8%.

Going from N#CCSc1nnc(-c2cnccn2)n1Cc1ccccc1 to Cn1ncc2c1ncn1nc(CCc3ccccc3)nc21, the “hERG current change (%, negative = inhibition) at 10uM” value falls from 17.7% to -4.42%.

Compared with CC(C)(C)c1ccc(C(=O)Nc2ccc(O)c3c(=O)cc(-c4ccccc4Cl)oc23)cc1, O=C(Nc1ccc(O)cc1)c1ccc(C(=O)c2ccccc2)o1 is higher in “hERG current change (%, negative = inhibition) at 10uM” value: -3.26% for the first, 2.26% for the second.

Going from COc1ccc(C2c3ccc(O)cc3Oc3ncn4nc(-c5ccccn5)nc4c32)cc1 (stereo not drawn) to CCOc1ccc(CNC(=O)CCC(=O)N2Cc3cccc(OC)c3Oc3ncccc32)cc1, the “hERG current change (%, negative = inhibition) at 10uM” value falls from 17.9% to -44.3%.

Going from COc1cc(/C=C/c2ccc3cccc(O)c3n2)cc(Cl)c1OC to COc1ccc(-c2cc(C(F)(F)F)nc(SCC(=O)NCc3cccs3)n2)cc1OC, the “hERG current change (%, negative = inhibition) at 10uM” value falls from 26.1% to -3.84%.

Compared with COc1cccc(CNC(=O)C2CCCN(S(=O)(=O)c3ccc4c(c3)C(C)(C)C(=O)N4C)C2)c1 (stereo not drawn), CN1CCN(C(=O)c2cccc(NS(=O)(=O)c3ccc(Br)cc3)c2)CC1.Cl is lower in “hERG current change (%, negative = inhibition) at 10uM” value: 7.81% for the first, -12.6% for the second.

Going from Cc1ccc(C(=O)NCCCNC(=O)c2cccnc2)cc1 to CC(=O)Nc1ccc(S(=O)(=O)NCC(=O)NCCCc2ccccc2)cc1, the “hERG current change (%, negative = inhibition) at 10uM” value rises from 8.52% to 24.8%.

First: O=C(O)CCCCN1C(=O)/C(=C\c2ccc(OCc3ccccc3)c(OCc3ccccc3)c2)SC1=S
Second: COc1cc(C2Nc3ccccc3C(=O)N2c2ccccc2)ccc1O (stereo not drawn)
The “hERG current change (%, negative = inhibition) at 10uM” value of the first is higher: 4.97% for the first, 2.53% for the second.

Going from COCCNC(=O)NC1(C(F)(F)F)Oc2ccc(Cl)cc2O1 (stereo not drawn) to CC(=O)Nc1ccc(C(F)(F)F)cc1Cl, the “hERG current change (%, negative = inhibition) at 10uM” value falls from -8.39% to -9.12%.

Compared with C/C(=N\NC(=S)NC1CCCCC1)c1ccccc1, COc1ccc(CNC(=O)COC(=O)CC2CCCC2)cc1 is higher in “hERG current change (%, negative = inhibition) at 10uM” value: 7.18% for the first, 15.5% for the second.

First: O=C(NCc1nnc(SCC(=O)N2CCN(c3ccccc3)CC2)o1)c1ccc(F)cc1
Second: CCOC(=O)c1ccc(N2C(=O)CC(N3CCN(C(=O)c4ccco4)CC3)C2=O)cc1 (stereo not drawn)
The “hERG current change (%, negative = inhibition) at 10uM” value of the first is higher: -5.96% for the first, -25.8% for the second.

Compared with CCCCNc1c(-c2ccc(SC(C)CC)cc2)nc2ccccn12.O=C(O)C(F)(F)F (stereo not drawn), CCOC(=O)C(C)n1nc(-c2ccccc2)c2ccccc2c1=O (stereo not drawn) is higher in “hERG current change (%, negative = inhibition) at 10uM” value: -2.61% for the first, 15.9% for the second.

First: Cc1cc(C(=O)CS(=O)(=O)c2ccccc2)cc(C)c1O
Second: CCOc1cc([N+](=O)[O-])cc(/C=N/NC(=O)c2c(-c3ccccc3)noc2C)c1O
The “hERG current change (%, negative = inhibition) at 10uM” value of the first is higher: 9.2% for the first, -3.58% for the second.

Compared with CCCCSC1(SCCCC)N=C(N)C2(C#N)C(c3ccccc3)NC(C)=C(C)C12C#N (stereo not drawn), Cc1cc(C(=O)OCC(=O)NCCC(C)C)c2ccccc2n1 is higher in “hERG current change (%, negative = inhibition) at 10uM” value: 2.2% for the first, 3.81% for the second.

Going from Cc1ccccc1-c1nc(-c2cccnc2)no1 to O=C(COC(=O)c1cc(-c2cccnc2)nc2ccccc12)Nc1ccc(F)cc1F, the “hERG current change (%, negative = inhibition) at 10uM” value falls from -5.49% to -18.5%.

First: N#C/C(=N\Nc1cccc(C(F)(F)F)c1)C(=O)c1ccsc1
Second: O=C(N/C=C/c1ccco1)Nc1cccc(Cl)c1
The “hERG current change (%, negative = inhibition) at 10uM” value of the first is higher: 11.3% for the first, 2.75% for the second.

Compared with O=C(NNc1c(Cl)cc(Cl)cc1Cl)C1CCC1, COc1ccc(S(=O)(=O)NC2CC3CCC2C3)cc1Cl (stereo not drawn) is lower in “hERG current change (%, negative = inhibition) at 10uM” value: -1.9% for the first, -10.1% for the second.

Compared with COCc1[nH]nc2c1C(c1c(F)cccc1Cl)C(C#N)=C(N)O2 (stereo not drawn), COCCCNC(=O)/C=C/c1ccc(Cl)cc1 is higher in “hERG current change (%, negative = inhibition) at 10uM” value: -3.01% for the first, 2.18% for the second.

Compared with COC(=O)CN1C(=S)N(c2ccc(OC)cc2)C(=O)/C1=C/c1cccs1, CCOC(=O)c1ccc(N2C(=O)CC(N(C)CCc3ccc(OC)c(OC)c3)C2=O)cc1 (stereo not drawn) is lower in “hERG current change (%, negative = inhibition) at 10uM” value: 34% for the first, -4.58% for the second.

Going from CCCN(CC1CC1)C(=S)NC(=O)c1ccc(S(=O)(=O)N2CCOCC2)cc1 to S=C(Nc1ccccc1Cl)N(CCCN1CCOCC1)Cc1ccco1, the “hERG current change (%, negative = inhibition) at 10uM” value falls from 2.32% to 0.554%.

Going from CCN(CC)C(=S)NCCc1ccccc1 to O=C(NCCc1ccccc1)c1ccc(CS(=O)Cc2ccc(Cl)cc2)o1 (stereo not drawn), the “hERG current change (%, negative = inhibition) at 10uM” value falls from 0.124% to -58.8%.

Going from CCn1c(=O)cc(OCC(=O)NCCCN2CCCC2=O)c2ccccc21 to CCCN1CCN(CCCNC(=O)CCNC(=O)Cn2ccc3ccccc3c2=O)CC1, the “hERG current change (%, negative = inhibition) at 10uM” value rises from 8.52% to 17.6%.

Compared with COc1ccc2cc(C=O)n(C)c2c1, CCN(CC)CCN1C(=O)C(=O)/C(=C(/O)c2c(C)[nH]c(C(=O)OC)c2C)C1c1ccc(OC)cc1 (stereo not drawn) is lower in “hERG current change (%, negative = inhibition) at 10uM” value: 5.05% for the first, -1.24% for the second.

Compared with COc1ccc(C)cc1NC(=O)CN1C(=O)c2ccccc2S1(=O)=O, Cc1ccccc1-c1ccc(=O)n(CC(=O)Nc2ccc(C(=O)N3CCCC3)cc2)n1 is higher in “hERG current change (%, negative = inhibition) at 10uM” value: -3.8% for the first, 7.48% for the second.

Going from CC(C)Cn1c(-c2ccncc2)n[nH]c1=S to Brc1ccc(-n2cnc(-c3ccccc3)c2)cc1, the “hERG current change (%, negative = inhibition) at 10uM” value falls from 21.9% to -0.438%.

Compared with O=C1C(=O)c2ccccc2C(O)=C1CCCCl, CC(C)c1ccccc1OCCCN1CCCC1.O=C(O)C(=O)O is lower in “hERG current change (%, negative = inhibition) at 10uM” value: 13.2% for the first, -33.1% for the second.

Going from O=C(Nc1ccccc1)Nc1ccc(F)c([N+](=O)[O-])c1 to O=C(CC1C(=O)NCCN1C(=O)c1ccc([N+](=O)[O-])cc1)Nc1ccc(F)cc1 (stereo not drawn), the “hERG current change (%, negative = inhibition) at 10uM” value falls from 1.61% to -21.8%.

Compared with CCCCN(C)C(=O)Cn1cnc2sc(C)cc2c1=O, CCOc1ccc(NC(=O)CN(C)C(=O)c2ccc(-c3ccc(C(C)=O)cc3)o2)cc1OCC is lower in “hERG current change (%, negative = inhibition) at 10uM” value: 6.51% for the first, -15.1% for the second.

Going from O=C(CSc1nc2ccccc2c(=O)n1C1CC1)NCc1ccccc1 to O=C1CN(C(=O)c2cc3ccccc3oc2=O)C(c2ccccc2)c2cc(F)ccc2N1 (stereo not drawn), the “hERG current change (%, negative = inhibition) at 10uM” value rises from -36.1% to -33.9%.

First: O=C(/C=C/c1ccco1)OCc1nnc(-c2ccccc2)o1
Second: N#C/C(=C\c1ccc(-c2ccccc2)o1)C(=O)Nn1cnnc1
The “hERG current change (%, negative = inhibition) at 10uM” value of the first is lower: -2.09% for the first, 1.7% for the second.

Going from NC1=NS(=O)(=O)NC1c1ccc(Br)cc1 (stereo not drawn) to Cc1ccc(C2(C(F)(F)F)NC(=O)N3CCN=C3S2)cc1 (stereo not drawn), the “hERG current change (%, negative = inhibition) at 10uM” value falls from -2.3% to -39.3%.

Going from O=C(O)c1cccc(NS(=O)(=O)c2ccc3nnn(O)c3c2)c1 to O=S(=O)(Nc1nc2c(s1)CCCC2)c1ccc(F)cc1, the “hERG current change (%, negative = inhibition) at 10uM” value falls from 7.17% to -21.1%.

Going from O=C(Cc1ccc([N+](=O)[O-])cc1)N/N=C/c1ccco1 to c1ccc(-n2ncc3c2ncn2nnnc32)cc1, the “hERG current change (%, negative = inhibition) at 10uM” value rises from -15.3% to 5.03%.

For CC(C)(C#CCN1CCCCC1)OCCOC(c1ccccc1)c1ccccc1.Cl, the “hERG current change (%, negative = inhibition) at 10uM” value was -21.3%.

From PMC4336329 (PLoS ONE, 2015)
